Test results reported in publication PMC4336329 (PLoS ONE, 2015).
Hit rate of the full screen: of about 310,000 compounds, about 2,200 (0.71%) showed an effect of 50% or more. Effects have a minus sign here. This is one part of the list.

Each compound was assayed against human ether-à-go-go-related gene (hERG) potassium channel (human, UniProt Q12809) (assay: primary screen, population patch clamp on CHO cells stably expressing hERG).
human ether-à-go-go-related gene (hERG) potassium channel, sequence (Q12809 whole entry, looked up): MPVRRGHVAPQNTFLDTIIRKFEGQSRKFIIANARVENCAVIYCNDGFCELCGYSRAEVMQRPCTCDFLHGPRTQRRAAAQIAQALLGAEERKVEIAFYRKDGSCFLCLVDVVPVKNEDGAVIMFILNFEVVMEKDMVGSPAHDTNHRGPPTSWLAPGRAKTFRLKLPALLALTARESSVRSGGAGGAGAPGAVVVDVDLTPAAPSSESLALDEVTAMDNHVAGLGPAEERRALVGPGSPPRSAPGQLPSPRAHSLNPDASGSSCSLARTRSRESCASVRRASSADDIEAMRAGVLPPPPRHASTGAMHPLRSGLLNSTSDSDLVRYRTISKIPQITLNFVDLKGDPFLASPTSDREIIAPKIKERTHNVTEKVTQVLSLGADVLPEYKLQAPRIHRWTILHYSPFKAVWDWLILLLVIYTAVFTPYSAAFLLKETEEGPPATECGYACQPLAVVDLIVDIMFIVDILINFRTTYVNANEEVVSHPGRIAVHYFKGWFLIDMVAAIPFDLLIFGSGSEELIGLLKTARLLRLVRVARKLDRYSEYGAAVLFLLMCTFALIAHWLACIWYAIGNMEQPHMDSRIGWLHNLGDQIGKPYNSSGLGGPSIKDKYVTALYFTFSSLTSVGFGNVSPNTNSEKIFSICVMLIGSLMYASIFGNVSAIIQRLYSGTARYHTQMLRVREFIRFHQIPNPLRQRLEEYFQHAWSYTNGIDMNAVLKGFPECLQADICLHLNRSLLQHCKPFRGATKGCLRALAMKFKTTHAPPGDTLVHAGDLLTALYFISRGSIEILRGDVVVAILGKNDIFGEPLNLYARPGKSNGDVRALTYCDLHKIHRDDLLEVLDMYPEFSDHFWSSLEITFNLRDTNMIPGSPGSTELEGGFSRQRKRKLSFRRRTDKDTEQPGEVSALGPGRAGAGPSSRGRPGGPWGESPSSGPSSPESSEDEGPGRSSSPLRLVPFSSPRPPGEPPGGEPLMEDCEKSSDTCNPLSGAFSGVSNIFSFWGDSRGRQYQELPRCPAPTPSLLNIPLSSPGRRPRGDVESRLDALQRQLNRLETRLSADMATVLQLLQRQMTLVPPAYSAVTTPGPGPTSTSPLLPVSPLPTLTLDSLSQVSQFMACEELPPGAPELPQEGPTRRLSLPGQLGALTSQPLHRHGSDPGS

In order of falling “hERG current change (%, negative = inhibition) at 1uM” value:
1. O=C(O)C1C2C=CC(O2)C1C(=O)Nc1ccc(S(=O)(=O)N2CCc3ccccc32)cc1 (stereo not drawn)  24.4%
2. COc1ccc(CCNC(=O)c2ccccc2NC(=O)C2=C(C)OCCS2)cc1OC  18.8%
3. COc1ccccc1CNC(=O)C1CCC(CNS(=O)(=O)c2ccc(C)cc2)CC1 (stereo not drawn)  18%
4. Cc1ccc(C2CC(c3cccs3)=NN2C(=O)CSc2nc3ccccc3o2)cc1 (stereo not drawn)  16.9%
5. COc1cccc(NC(=O)c2cnc(SC)nc2)c1  16.1%
6. CCOc1ccc2cc(S(=O)(=O)N3CCCCC3)ccc2c1  15.9%
7. Cn1ncc2c(N3CCCCC3)nc(NCCCO)nc21  15.4%
8. COc1nccnc1NS(=O)(=O)c1ccc(NC(=S)NC(=O)c2cccnc2)cc1  15%
9. Cc1cc2nc(CCl)cc(=O)n2[nH]1  14.7%
10. COC(=O)C1=C(c2ccc(OC(F)(F)F)cc2)C[C@@H]2CC[C@H]1N2C(=O)NCc1cc(C)oc1C(F)(F)F  14.7%
11. CC1CCc2sc(C(=O)OCC(=O)NC(N)=O)cc2C1 (stereo not drawn)  14.3%
12. COc1cc(C)ccc1OCCCCNCc1ccccc1.O=C(O)C(=O)O  14.2%
13. CCCCNC(=O)c1cccc(NC(=O)C(=O)c2ccccc2NC(C)=O)c1  14%
14. CCOc1ccccc1OCCOc1cccc(C(F)(F)F)c1  13.6%
15. COc1ccc(-n2c(C)cc(C(=O)CN3C(=O)c4ccccc4C3=O)c2C)cc1  13.5%
16. CC(=O)Nc1nnc(SCc2ccccc2F)s1  13.1%
17. COc1cccc(C2CC(C(F)(F)F)n3ncc(C(=O)Nc4c(C)n(C)n(-c5ccccc5)c4=O)c3N2)c1 (stereo not drawn)  12%
18. NS(=O)(=O)c1ccc(N=Cc2c(O)n(-c3ccccc3)c(=O)[nH]c2=O)cc1  11.9%
19. C[C@H](CCC(=O)[O-])[C@H]1CC[C@H]2[C@@H]3[C@H](O)C[C@@H]4C[C@H](O)CC[C@]4(C)[C@H]3C[C@H](O)[C@]12C.O.[Na+]  11.6%
20. O=C(CNC(=O)c1ccccc1Cl)Nc1ccncc1  11.5%
21. N#CC1C=Cc2ccccc2N1C(=O)c1ccccc1 (stereo not drawn)  11.4%
22. COCc1ccc(C(=O)N2CCCC(N(C)Cc3ccccc3)C2)s1 (stereo not drawn)  11.1%
23. CCN(CC)S(=O)(=O)c1cccc(C(=O)OCC(=O)Nc2ccc3c(c2)c2ccccc2n3CC)c1  10.7%
24. CC(=O)NCC(=O)N(c1c(C)n(C)n(-c2ccccc2)c1=O)C1(C(=O)NC2CCCC2)CCCCC1  10.6%
25. O=c1c(Cc2ccc(Cl)cc2)c(O)ccn1Cc1cccs1  10.3%
26. O=C(Nc1ccc(OC(F)(F)F)cc1)Oc1ccccc1N1CCCCC1  10.3%
27. COc1cc(OC)cc(-c2c(-c3cccs3)c3cc(-c4cnc(OC)nc4)ccc3n2C)c1  10.2%
28. CC1CCc2nn(CC(=O)Nc3c(F)cc(F)cc3Br)cc2C1 (stereo not drawn)  10.1%
29. O=c1cc(-c2ccccc2Cl)oc2c(Br)ccc(O)c12  9.41%
30. CCOc1ccccc1N1CCN(S(=O)(=O)CC)CC1  9.07%
31. CC(C)(C)c1ccc(C(=O)N2CCCCCC2=O)cc1  8.85%
32. COc1ccc(C(C)(C)C)cc1NC(=O)c1[nH]c(C)c(C(C)=O)c1C  8.8%
33. CC1(C)Cc2c(sc3[nH]c(=S)n(Cc4ccccc4)c(=O)c23)CO1  8.74%
34. O=C(/C=C/Nc1ccccc1C(F)(F)F)c1ccco1  7.89%
35. COc1ccc(S(=O)(=O)NC(C)C(=O)O)cc1 (stereo not drawn)  7.44%
36. NC(=O)COC(=O)c1ccccc1OCc1ccc(Cl)cc1  7.36%
37. COc1ccc(N(C(=O)c2ccco2)C(C(=O)NC2CCCC2)c2cccnc2)c(OC)c1 (stereo not drawn)  7.17%
38. CCc1nnc(NC(=O)CSc2nc3c(c(=O)n2C)SC(C)C3)s1 (stereo not drawn)  7.03%
39. COc1cc([N+](=O)[O-])ccc1NC(=O)/C=C\C(=O)O  6.98%
40. CC(C)(C)OC(=O)NNC(=O)C12CC3CC(CC(C3)C1)C2  6.73%
41. CCOC(=O)Cc1csc(NC(=S)NC(=O)c2ccccc2)n1  6.68%
42. COc1cccc(NC(=O)Nc2ccc(C)c(Cl)c2)c1  6.29%
43. CCC(=O)N1c2ccccc2NC2=C(C(=O)CCC2)C1c1ccc(N(C)C)cc1 (stereo not drawn)  6.1%
44. O=C(NCc1nc2ccccc2[nH]1)C1=C[C@H](C2CC2)C[C@H](OCc2ccc(CO)cc2)O1  5.95%
45. O=C(c1ccc(Br)o1)N1CCN(c2ccc3nnc(-c4ccc(F)cc4)n3n2)CC1  5.43%
46. Cc1[nH]c(C)c(S(=O)(=O)Nc2cccc(Cl)c2C)c1C(=O)N1CCCCC1  5.34%
47. CC(C)C(c1nnnn1Cc1ccccc1)N1CCc2ccccc2C1 (stereo not drawn)  5.26%
48. CCOC(=O)C1=C(N)Oc2cc(C)oc(=O)c2C12C(=O)N1c3c(cccc32)C(C)=CC1(C)C (stereo not drawn)  5.25%
49. CCc1ccccc1NCC(=O)Nc1ccccc1C(=O)OC  5.18%
50. CC(=O)OCC(=O)NCCCOc1cccc(CN2CCCCC2)c1.Cl  4.98%
51. O=C(Nc1ccccc1N1CCOCC1)c1cc(=O)[nH]c2ccccc12  4.47%
52. O=C(CNC(=O)c1ccccn1)N/N=C/c1ccccc1  3.82%
53. CCN(CC)S(=O)(=O)c1cccc(NC(=O)C2SC(=Nc3ccc(C)cc3C)C(C(=O)NCC3CCCO3)=C2N)c1 (stereo not drawn)  3.68%
54. CCOc1ccc(/C=C(\C(=O)O)c2ccc(S(=O)(=O)N3CCOCC3)s2)cc1OC  3.65%
55. COc1ccc(-c2cc(=O)oc3c(C)c(OCC(=O)NCC4CCC(C(=O)O)CC4)ccc23)cc1 (stereo not drawn)  3.63%
56. O=C(OCc1nnc(-c2ccc(Cl)cc2)o1)c1ccncc1  3.31%
57. Nc1n[nH]c(N)c1N=Nc1ccccc1  3.03%
58. Cc1onc(-c2ccccc2)c1C(=O)NNC(=S)NC(=O)c1ccc(Cl)cc1Cl  2.99%
59. N#Cc1ccc(C(c2nnnn2CCc2ccccc2)N2CCCCCC2)cc1 (stereo not drawn)  2.41%
60. CC(=O)c1ccc(OC(NC(=O)Cc2ccccc2)C(Cl)(Cl)Cl)cc1 (stereo not drawn)  1.7%
61. Cc1cc(C)n2nc(C(=O)N/N=C/c3c4ccccc4cc4ccccc34)nc2n1  1.16%
62. CCN1CCN(CCNC(=O)c2ccc(CS(=O)(=O)c3ccccc3C)o2)CC1  1.06%
63. C=CCn1c(SCC(=O)Nc2ccc(Br)cc2)nc(O)c(CC)c1=O  0.7%
64. COc1cccc(C2CC(c3ccccc3OC)n3ncnc3N2)c1 (stereo not drawn)  -0.386%
65. COc1ccc(C(=O)O)cc1NC(=S)NC(=O)CSc1ccc(Cl)cc1  -0.389%
66. O=c1[nH]cnc2sc3c(c12)CCCCC3  -0.54%
67. O=c1cc(CSc2nnnn2-c2ccccc2)[nH]c2[nH]n(-c3ccccc3)c(=O)c12  -0.986%
68. Cc1ccc(NC(=O)CN2CCC(NC(=O)Cc3ccccc3)CC2)cc1C  -1.89%
69. CC(C)C1N=C(c2ccc3c(c2)OCO3)CC(c2ccccc2O)N1 (stereo not drawn)  -2.54%
70. Cc1ccccc1-n1c(SCC(=O)N2CCN(c3ccccc3)CC2)nnc1-c1ccncc1  -3.12%
71. O=C(N/N=C/c1ccc([N+](=O)[O-])o1)c1ccccc1NS(=O)(=O)c1cccs1  -3.77%
72. COc1ccc(-n2c(Cc3cccn3C)nnc2SCC(=O)Nc2ccccc2)cc1  -4.09%
73. CC1=C(C(=O)Nc2ccccc2F)C(c2ccsc2)C2=C(CC(c3ccccc3)CC2=O)N1 (stereo not drawn)  -4.79%
74. CCCCOC(=O)Cn1c(=O)c2c(nc(Br)n2Cc2ccccc2)n(C)c1=O  -6.02%
75. O=C(c1cccs1)N1CCc2c([nH]c3ccccc23)C1c1ccccn1 (stereo not drawn)  -6.08%
76. COc1cccc(C(=O)NC2CC3CCCC(C2)N3S(=O)(=O)c2ccccc2)c1 (stereo not drawn)  -8.93%
77. Cc1sc2c(c1C)C(c1cccs1)=NCC(=O)N2CC(=O)NCc1cccs1  -13.7%
78. O=C(CCNC(=O)c1ccccc1)OCC(=O)c1cccc(Cl)c1  -14.2%
79. COc1ccc(/C=N/NC(=O)CCC(=O)Nc2ccccc2)cc1OC  -15.7%
80. O=C(NCCCN1CCc2ccccc2C1)C1CCN(c2nnc(-n3cccc3)s2)CC1  -20.7%
81. Cc1c(C(=O)NCc2cccnc2)sc2nc(-c3ccc(F)cc3)cn12  -26.1%
82. COc1ccc(CCN(Cc2cc3ccc(C)cc3[nH]c2=O)C(C)=O)cc1OC  -26.6%
83. CN(C)CCNC(=O)/C(=C/c1ccc(-c2cccc([N+](=O)[O-])c2)o1)NC(=O)c1ccccc1  -37.2%
84. Cc1cccn2c(=O)c3cc(C(=O)NC4CCCCC4)c(=N)n(Cc4ccccc4)c3nc12  -40.2%
